# Source: PubChem BioAssay AID686970 (National Center for Advancing Translational Sciences (NCATS), 2013)
# About 6,000 (1.7%) of roughly 360,000 compounds were called active. Inconclusive means that the source gave no clear call. Such entries were picked first, then a sample of the others. The call rests on the fitted dose curve; in most records, active means well fitted cell-killing curve with a large enough effect; inconclusive means small, poorly fitted or top-dose-only effect, or effect the other way; inactive means flat fitted curve, though single readings scatter. No potency is given beside an inconclusive call; the fits are too rough.
# Test: qHTS for induction of synthetic lethality in tumor cells producing 2HG: qHTS for the HT-1080-NT fibrosarcoma cell line;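 further: NT is the 2HG producing partner of a matched IDH1 knockdown line; nearly all actives have a fitted effect of over 55% in size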;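 on activity, negative = less viability: 0% = DMSO-treated cells and -100% = media-only wells without cells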
# Settings: HT-1080-NT fibrosarcoma viability, CellTiter-Glo ATP luminescence, 48 h; activity, negative = less viability: at 46.1 µM (top of the series) unless noted
# Outline: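 A 48-hour cytotoxicity screen used HT-1080-NT cells plated 2 hours before compound delivery. ATP-based CellTiter-Glo luminescence measured viability, normalized to DMSO and no-cell controls.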
# Potency means the concentration at half of the fitted maximal effect; tags describe the fitted curve by direction and shape.
SMILES,Potency,"activity, negative = less viability"
Cc1cc(C)nc(Nc2nc(C(N)Cc3ccc(Cl)cc3)cs2)n1 (stereo not given),active: 20.6 µM,–
COc1ccc(OC)c(NC(=O)COC(=O)c2cc3c(s2)CCC3)c1,"inconclusive [cytotoxic, single point]",–
CC1=NN(C(=O)COc2cc(C)ccc2C(C)C)C(O)(c2ccccc2)C1 (stereo not given),"inconclusive [cytotoxic, single point]",–
Cc1ccccc1NC(=O)CSc1nnc(C)c2ccccc12,inactive,–
CC1=C(C(=O)N(C(C)C)C(C)C)CC(CC(=O)NCc2cccc3ccccc23)C(=O)N1Cc1ccc(F)cc1 (stereo not given),"inconclusive [cytotoxic, single point]",–
CCc1ccc(Nc2ncc3c(n2)CC(c2ccc(OC)cc2)CC3=O)cc1 (stereo not given),"inconclusive [cytotoxic, single point]",–
O=C1OCCN1c1c(-c2ccccc2)c(-c2cccs2)nc2c(-c3ccccc3)cccc12,inactive,–
Cn1cc(C(=O)c2ccc(Cl)cc2Cl)cc1C(=O)N/N=C(\N)COc1ccc(Cl)cc1,"inconclusive [cytotoxic, single point]",–
CCC(=O)N1Cc2cc(C(=O)Nc3nccs3)nc(-c3cccc(-c4ccccc4OC)c3)c2[C@@H]1CCO,–,inconclusive: -31.6% [cytotoxic]
CCCC(C)Sc1nc2c([nH]1)c(=S)n(C)c(=O)n2C (stereo not given),inactive,–
O=C(Nc1ccc(F)cc1)C(CCc1ccccc1)N1CCN(c2cccc(C(F)(F)F)n2)CC1 (stereo not given),"inconclusive [cytotoxic, partial curve]",–
COC(=O)c1ccc2ccn(CC(=O)NC(C)C)c2c1,inactive,–
CCOc1cc(CNc2ccc(Br)cc2)cc(Br)c1OCC(=O)NC(C)(C)C,"inconclusive [cytotoxic, single point]",–
Cc1cc(C(=O)Nc2c(C)nn(Cc3c(Cl)cccc3Cl)c2C)no1,"inconclusive [cytotoxic, single point]",–
CCCNC(=O)C1(C)CCCN(C(=O)c2ccc(F)c(Cl)c2)C1 (stereo not given),inactive,–
COc1ccc(NC(=O)CSc2nnc3n2CCCCC3)cc1OC,–,inconclusive: -3.28% [cytotoxic]
C[C@H]1CN([C@@H](C)CO)S(=O)(=O)c2ccc(Br)cc2O[C@H]1CN(C)C(=O)Cc1ccncc1,inactive,–
COC(=O)[C@@]12C[C@@H](CC(=O)NCc3cccc4ccccc34)C(=O)N(Cc3ccco3)C1=CCC(C)(C)C2,"inconclusive [cytotoxic, single point]",–
CC(=O)NC1=NN(C(C)=O)C(C)(c2ccccc2)S1 (stereo not given),active: 2 µM,–
CC(C)Cn1c(N)c(C(=O)COC(=O)C2Cc3ccccc3CN2S(C)(=O)=O)c(=O)n(C)c1=O (stereo not given),inactive,–
O=C(CSc1nc2ccccc2nc1SCC(=O)N1CCCCC1)N1CCCCC1,"inconclusive [cytotoxic, single point]",–
Cc1nnc(N/N=C/c2cccc(C(F)(F)F)c2)n1N,"inconclusive [cytotoxic, partial curve, poor fit]",–
COc1cccc(/C=N/Nc2ncc(C(F)(F)F)cc2Cl)c1O,active: 16.4 µM,–
Cc1noc2ncnc(N3CCN(c4cccc(Cl)c4)CC3)c12,inactive,–

SMILES,Potency,"activity, negative = less viability"
Cc1ccc(/C=N/NC(=O)C2COc3ccccc3O2)s1 (stereo not given),"inconclusive [cytotoxic, full curve]",–
Nc1nc2c(ncn2[C@H]2C[C@H](O)[C@@H](CO)O2)c(=O)[nH]1,"inconclusive [cytotoxic, single point]",–
Cc1ccc(COC[C@H](CC(C)C)N2CCN(C(=O)c3cccc(C(F)(F)F)c3)CCC2=O)cc1,"inconclusive [cytotoxic, single point]",–
Cc1ccc2cc(CN(Cc3ccco3)C(=O)c3cccs3)c(=O)[nH]c2c1,active: 4.61 µM,–
Cn1cccc1/C=C1\SC(=Nc2ccc(O)cc2)NC1=O,active: 0.517 µM,–
COc1ccccc1NC(=O)c1ccc(-c2ccccc2[N+](=O)[O-])o1,"inconclusive [cytotoxic, single point]",–
CCOc1ccccc1C(=O)N[C@H](C(=O)Nc1nc2c(s1)CCCC2)C(C)C,"inconclusive [cytotoxic, single point]",–
C/C(=N\NC(=O)c1ccc(COc2ccccc2)cc1)c1ccncc1,"inconclusive [cytotoxic, partial curve]",–
Cc1ccc(Nc2nc(Cl)nc(NC3CCCCC3)n2)cc1,"inconclusive [cytotoxic, single point]",–
CNc1ccc(-c2ccccc2OC)cn1,"inconclusive [rising, single point]",–
CCOc1ccc(-c2c(C(=O)N/N=C/c3ccncc3)nnn2-c2nonc2N)cc1,"inconclusive [cytotoxic, single point]",–
CCN1CCc2c(C#N)c(NCc3ccccc3)nc(N(CC)CC)c2C1,"inconclusive [cytotoxic, single point]",–
COc1ccc(C2C(=O)N(C3CCCCC3)CC(=O)N2C2CCCCC2)cc1 (stereo not given),–,inactive: -1.14% [at 9.24 µM]
O=S(=O)(Nc1ccc(-c2nnc(SCc3ccc(Cl)cc3)o2)cc1)c1ccccc1,inactive,–
CSc1ncccc1C(=O)OCC(=O)c1ccccc1,inactive,–
Cc1cccc(NC(=O)C2CCN(S(=O)(=O)c3ccc4ccccc4c3)CC2)n1,"inconclusive [cytotoxic, single point]",–
CN(CC(=O)NC1CCCCCC1)S(=O)(=O)c1ccc(Br)cc1,inactive,–
Cn1cc(CN2CCC(C(=O)Nc3cccc(-c4cccc(F)c4)c3)CC2)cn1,active: 20.6 µM,–
C=CCOC(=O)C1=C(C)NC(SCC(=O)Nc2nccs2)=C(C#N)C1c1cccs1 (stereo not given),"inconclusive [cytotoxic, single point]",–
COc1ccccc1C(CNc1ccc(S(=O)(=O)N2CCCC2)cc1[N+](=O)[O-])N(C)C (stereo not given),"inconclusive [cytotoxic, partial curve]",–
Cc1ccc(C=Nc2ccccc2C(N)=O)cc1,active: 7.08 µM,–
Cc1nn(-c2ccccc2)c(Cl)c1/C=N/NC(=O)c1[nH]ncc1Br,inactive,–
O=C(CN1CC[n+]2c(-c3cccs3)csc21)c1ccc(-c2ccccc2)cc1,"inconclusive [cytotoxic, single point]",–
COc1ccc(OC)c(NC(=O)COC(=O)CCCN=C2NS(=O)(=O)c3ccccc32)c1,inactive,–

SMILES,Potency,"activity, negative = less viability"
O=C(N/N=C/c1ccco1)c1ccn[nH]1,inactive,–
Cn1c(N)c(C(=O)COC(=O)c2cc(S(=O)(=O)N3CCOCC3)ccc2F)c(=O)n(C)c1=O,"inconclusive [cytotoxic, single point]",–
Cc1ccc(-c2nnn(CC(=O)NCc3ccccc3)n2)c(-n2cnnn2)c1,"inconclusive [cytotoxic, single point]",–
COc1cc(C(=O)NCCOc2cc(C)cc(C)c2)cc(OC)c1OC,active: 11.6 µM,–
COc1cc2c(cc1OC)C1(Nc3c-2c(-c2ccccc2)nn3-c2ccccc2)C(=O)Nc2ccccc21 (stereo not given),"inconclusive [cytotoxic, single point]",–
Cc1cc(=O)[nH]c(N/N=C/c2ccc(Cl)c([N+](=O)[O-])c2)n1,–,inconclusive: 25.9%
O=C(C[n+]1ccc(/C=C/c2ccccc2)cc1)c1ccc2c(c1)OCCO2,"inconclusive [cytotoxic, single point]",–
O=C(NCc1ccccc1)c1cccc2c1C(=O)c1ccc(/C=C/c3ccccc3)cc1S2(=O)=O,"inconclusive [cytotoxic, single point]",–
Cc1ccc(C(O)c2ncc(-c3ccc(Cl)cc3)[nH]2)cc1 (stereo not given),inactive,–
CCOc1cc2c(cc1O)CCC1C2CCC2(C)C(O)CCC12 (stereo not given),"inconclusive [cytotoxic, full curve]",–
O=C(c1ccc(C(F)(F)F)cc1)C1CCCN(Cc2cccn2-c2ncccn2)C1 (stereo not given),"inconclusive [cytotoxic, single point]",–
COCCCNC(=S)N1CCN(C)CC1,–,inconclusive: 43.9%
CCOCN(C(=O)Cn1cnc2ccccc21)c1c(C)cccc1CC,inactive,–
COc1ccc(NC(=O)C(=O)N2N=C(C(C)C)CC2(O)C(F)(F)F)cc1 (stereo not given),"inconclusive [cytotoxic, single point]",–
O=C(CCCOc1cccc(Br)c1)NC1CCC(O)CC1 (stereo not given),"inconclusive [rising, single point]",–
CC(Nc1cccc2ccccc12)C(=O)N/N=C/c1ccccn1 (stereo not given),active: 14.1 µM,–
COc1ccc(/C=c2/sc3n(c2=O)C(c2ccccc2OC)C2=C(N=3)c3ccccc3CC2)cc1O (stereo not given),"inconclusive [cytotoxic, partial curve]",–
CCCCc1c(-c2ccc(F)cc2F)ncn1CCc1ccccc1OC,"inconclusive [cytotoxic, single point]",–
Cc1cn([C@H]2C[C@H](O)[C@@H](CCC(=O)NCCc3cnc[nH]3)O2)c(=O)[nH]c1=O,inactive,–
C(=N\Nc1nc(N2CCCCC2)nc(N2CCCCC2)n1)/c1c[nH]c2ccccc12,"inconclusive [cytotoxic, partial curve, poor fit]",–
COc1ccc(Cc2c(-c3cccc(Cl)c3)nc3ccc(C)cn23)c(C)c1,"inconclusive [cytotoxic, single point]",–
CCOc1ccccc1NC(=O)c1cccc(NC(=O)c2ccco2)c1,"inconclusive [cytotoxic, full curve]",–
